# Data published in PMC4336329 (PLoS ONE, 2015).
# Hit rate of the full screen: of about 310,000 compounds, about 2,200 (0.71%) showed an effect of 50% or more. Effects have a minus sign here. Some of the results follow.
# Biological target: human ether-à-go-go-related gene (hERG) potassium channel (human, UniProt Q12809)
# Assay: primary screen, population patch clamp on CHO cells stably expressing hERG
# human ether-à-go-go-related gene (hERG) potassium channel, sequence (Q12809 whole entry, looked up): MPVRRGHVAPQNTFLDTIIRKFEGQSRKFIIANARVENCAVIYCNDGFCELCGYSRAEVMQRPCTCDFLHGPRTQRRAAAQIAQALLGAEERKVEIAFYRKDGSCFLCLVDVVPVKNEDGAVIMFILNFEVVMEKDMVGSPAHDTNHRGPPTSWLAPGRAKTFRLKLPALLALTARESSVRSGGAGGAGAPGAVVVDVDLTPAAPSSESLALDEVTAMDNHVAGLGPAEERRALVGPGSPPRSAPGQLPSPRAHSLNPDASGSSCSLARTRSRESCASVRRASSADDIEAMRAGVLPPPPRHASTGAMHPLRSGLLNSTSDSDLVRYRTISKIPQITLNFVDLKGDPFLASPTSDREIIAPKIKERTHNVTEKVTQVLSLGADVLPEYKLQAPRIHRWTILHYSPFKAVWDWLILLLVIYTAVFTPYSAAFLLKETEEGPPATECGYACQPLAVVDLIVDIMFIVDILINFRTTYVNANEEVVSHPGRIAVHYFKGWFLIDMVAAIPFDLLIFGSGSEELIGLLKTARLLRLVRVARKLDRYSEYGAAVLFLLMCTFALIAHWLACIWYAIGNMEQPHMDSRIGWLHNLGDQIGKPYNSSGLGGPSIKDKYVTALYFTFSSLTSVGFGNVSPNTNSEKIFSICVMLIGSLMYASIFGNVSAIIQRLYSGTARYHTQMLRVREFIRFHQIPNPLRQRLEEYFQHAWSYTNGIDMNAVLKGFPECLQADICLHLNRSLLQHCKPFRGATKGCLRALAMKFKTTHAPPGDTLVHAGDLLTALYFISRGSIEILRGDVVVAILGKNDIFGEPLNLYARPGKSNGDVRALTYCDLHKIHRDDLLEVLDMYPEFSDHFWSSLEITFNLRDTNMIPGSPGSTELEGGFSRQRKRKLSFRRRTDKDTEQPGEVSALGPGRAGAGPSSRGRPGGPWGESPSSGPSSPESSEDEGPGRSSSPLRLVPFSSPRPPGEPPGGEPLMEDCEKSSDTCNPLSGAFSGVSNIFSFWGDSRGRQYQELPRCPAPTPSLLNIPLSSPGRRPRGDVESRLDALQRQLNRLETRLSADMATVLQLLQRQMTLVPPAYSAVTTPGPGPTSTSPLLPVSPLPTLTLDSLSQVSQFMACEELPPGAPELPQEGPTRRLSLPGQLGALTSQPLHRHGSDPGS
row,SMILES,"hERG current change (%, negative = inhibition) at 1uM"
1,O=S(=O)(Nc1ccncc1)c1ccc(Cl)cc1,-3.34%
2,COc1ccc(N2CCN(S(=O)(=O)c3ccc(C(=O)NC4CCCC4)cc3)CC2)cc1,-3.56%
3,CNC(=O)c1nnn(-c2ccccc2)c1C(=O)NC,-0.417%
4,Cc1ccc(Cl)cc1N1CCN(C(=O)CN(C2CCCCC2)S(C)(=O)=O)CC1,11.2%
5,O=C(NNC(=O)c1c(F)cccc1F)c1ccccc1-n1cccc1,8.43%
6,CCCN1CCN(C(=O)C2CCN(c3ncnc4c3nc3n4CCCCC3)CC2)CC1,13.3%
7,CC(=O)Nc1nc(=S)n(-c2ccccc2)[nH]1,7.42%
8,COC(=O)C1C2c3ccccc3OC1(C)N=c1s/c(=C/c3cn(C)nc3C)c(=O)n12 (centres unmarked),11.5%
9,O=C(c1nc2ccccn2c1CNCCCn1ncc2ccccc21)N1CCOCC1,12.3%
10,CCc1ccccc1NC(=S)N(CCCN1CCN(C)CC1)Cc1cccs1,-7.26%
11,CCN(CC)c1ccc2cc(-c3nnc(-c4ccccc4)o3)c(=O)oc2c1,7.29%
12,COc1ccc(CCN2CC(C(=O)NCc3ccc(F)cc3)CC2=O)cc1OC (centres unmarked),6.95%
13,CCC(C)NC(=O)CN1C(=O)CC(C)(C)S(=O)(=O)c2ccccc21 (centres unmarked),0.496%
14,O=C(COC(=O)CNC(=O)c1ccc(Cl)cc1)Nc1ccc(Cl)cc1C(F)(F)F,19.3%
15,COc1ccccc1NC(=O)NCCN1CCN(C(=O)Nc2ccccc2OC)CC1,3.86%
16,COc1ccc(CN2CCNC(=O)C2CC(=O)NCCCn2cccn2)cc1C (centres unmarked),-19.8%
17,CC(=O)c1ccc(NS(=O)(=O)c2ccc(C(C)(C)C)cc2)cc1,7.28%
18,O=C(NC1CCCCC1)C1CCCN(c2nnnn2-c2ccccc2)C1 (centres unmarked),9.21%
19,CCC1=C2CC[C@H]3C(=O)N(C)C(=O)[C@H]3[C@H]2[C@@]2(Cc3ccccc3)C(=NCCOC)OC(=O)N2C1=O,-11.2%
20,Cc1cc(C)cc(OCc2nnc(SCC(=O)c3ccc(Br)cc3)o2)c1,1.82%
21,COc1ccc(NS(=O)(=O)c2cc(C(=O)N3CCN(C(C)=O)CC3)ccc2Cl)cc1,13.2%
22,O=C(O)c1c2c(nc3ccc(S(=O)(=O)N4CCC(C(=O)NCc5ccc(Cl)cc5)CC4)cc13)CCCC2,18.5%

row,SMILES,"hERG current change (%, negative = inhibition) at 1uM"
1,CCOC(=O)c1c(C)[nH]c(C(=O)OCC(=O)Nc2sc(C(=O)N(C)C)c(C)c2C(=O)OCC)c1C,-4.19%
2,C=C1C(C(=O)Nc2ccc(OC)cc2)C1C(=O)Nc1ccc(OC)cc1 (centres unmarked),14.2%
3,CCN(CC)CCCNc1nc(-n2nc(C)cc2C)nc2sc3c(c12)CC(C)(C)OC3,2.93%
4,COc1ccccc1CNS(=O)(=O)c1ccc2c(c1)CCCN2C(C)=O,13.2%
5,CCCCNC(=O)C1C2C=CC3(CN(Cc4ccc(C)cc4)C(=O)C13)O2 (centres unmarked),13.1%
6,Cc1[nH]c2ccccc2c1C1(O)C(=O)N(C(C)C)c2ccccc21 (centres unmarked),18.8%
7,Cc1nnc(SCC(=O)Nc2ccc(O)cc2)c2ccccc12,22.6%
8,CC(=O)NCCCC(=O)NNC1CC(=O)N(c2cccc(Cl)c2)C1=O (centres unmarked),16.2%
9,CC(C)N1C(=O)C(=O)N(CC(=O)N2CCc3ccccc32)C1=O,3.95%
10,O=C(NCc1ccc(Cl)cc1)c1cc(-c2ccco2)on1,11.6%
11,Cn1c(=O)[nH]c(=O)c2c1nc(N1CCN(CCO)CC1)n2CCSc1nc2ccccc2s1,9.51%
12,CCCn1c2ccc(/C(C)=N\O)cc2c2cc(/C(C)=N/O)ccc21,11.5%
13,CCOc1ccc(C(=O)Nc2nnc(S(=O)(=O)N(C)Cc3ccco3)s2)cc1,6.72%
14,O=C(Nc1ccccc1)Nc1nc(-c2ccccc2)cs1,16.5%
15,CC(C)(C)/C(COc1ccccc1[N+](=O)[O-])=N/O,9%
16,Cc1cc(OCc2cc(C(=O)NC(C)c3c(C)nn(C)c3C)no2)cc(C)c1Cl (centres unmarked),-10.2%
17,COCCOC(=O)C1=C(N)OC2=C(C(=O)CC(C)(C)C2)C1c1ccncc1 (centres unmarked),7.95%
18,COc1ccccc1NC(=O)NN1CCCCC1,-4.28%
19,CCC(=O)N(c1nnc(SCC(=O)NN2C(=O)NC3(CCC(C)CC3)C2=O)s1)C1CC1 (centres unmarked),5.39%
20,COc1ccc(-c2nn(-c3ccccc3)cc2/C=C2/SC(=S)N(CCC(=O)O)C2=O)cc1,16.9%
21,CCCc1cc(=O)oc2cc(OC(C)C(=O)NCC3CCC(C(=O)O)CC3)ccc12 (centres unmarked),16.6%
22,O=C(Nc1ccc2oc(-c3ccccc3F)nc2c1)c1ccccc1F,2.26%

row,SMILES,"hERG current change (%, negative = inhibition) at 1uM"
1,Cc1c(CN2CCC(n3nccc3NC(=O)c3cccc(F)c3)CC2)cnn1C,16.9%
2,Cc1cccc(NC(=O)c2ccc(-n3cncn3)c([N+](=O)[O-])c2)c1,-20.2%
3,Cc1nsc2c1ccc1ccccc12,8.16%
4,Cc1snc(SCc2c(F)cccc2Cl)c1C#N,14%
5,Cc1ccc(S(=O)(=O)N2CCCN(S(=O)(=O)c3ccc(C(F)(F)F)cc3)CC2)cc1,4.46%
6,Cc1ccc(N2C(=O)N(CC(=O)Nc3ccccc3C)C(=O)C2C)cc1 (centres unmarked),8.03%
7,O=C(NCc1ccc(F)cc1)c1noc2c1CCCC2,3.67%
8,COc1ccc(-c2c(-c3cc(OC)c(OC)c(OC)c3)noc2C)cn1,-4.66%
9,Cc1ccc(SCC(=O)OCc2csc(CC(=O)Nc3ccccc3C)n2)cc1C,5.37%
10,O=C(Nc1ccc(NC(=O)c2cccc([N+](=O)[O-])c2)cc1)c1cccc([N+](=O)[O-])c1,9.44%
11,CC1CCCN(C(=O)CCNC(=O)Cn2cnc3ccccc3c2=O)C1 (centres unmarked),16.1%
12,CCCCC(=O)NCc1ccc(Cl)cc1,9.58%
13,CC(CNC(=O)CC(C)(C)C)NC(=O)CC(C)(C)C (centres unmarked),5.95%
14,COc1ccc([C@H]2CC(=O)C=C(c3ccc(OC(F)(F)F)cc3)C2)cc1OC,1.69%
15,CC1CN(C(c2cccs2)c2sc3ncnn3c2O)CC(C)O1 (centres unmarked),19.7%
16,CCOC(=O)CCCNC(=O)CCNC(=O)c1ccc(OC)cc1,1.57%
17,COc1cccc(/C(O)=C2/C(=O)C(=O)N(CCN(C)C)C2c2ccccn2)c1 (centres unmarked),-9.56%
18,O=C(Nc1cccc(S(=O)(=O)N2CCCCC2)c1)c1ccc(OCC2CCCO2)cc1 (centres unmarked),7.59%
19,C=CCNC(=O)c1ccc(-c2ccc([N+](=O)[O-])cc2)o1,-18.2%
20,O=[N+]([O-])c1ccc(NC(=S)NCCc2ccc(Cl)cc2)cc1,3.96%
21,NC(=O)c1ccc(NC(=O)CN2CCN(S(=O)(=O)c3ccc4c(c3)OCCO4)CC2)cc1,4.49%
22,NC(=O)c1ccsc1NC(=O)C1CC1,10.9%

row,SMILES,"hERG current change (%, negative = inhibition) at 1uM"
1,CCN1CCN(C(=S)Nc2cc(C(=O)OC)ccc2C(=O)OC)CC1,6.5%
2,O=C(c1ccc(Br)cc1)N1CCC2(CC1)NCCc1[nH]cnc12,-37.5%
3,Cc1onc(-c2c(F)cccc2Cl)c1C(=O)Nc1cccc(Cn2cccn2)c1,-2.11%
4,CCC(C)(C)NC(=O)C(c1cccc(OC)c1OC)N(CCOC)C(=O)CCC(=O)Nc1cc(C)on1 (centres unmarked),8.47%
5,C=CCNc1c2c(nc3nnnn13)CCCC2,9.9%
6,COc1ccc(Nc2ncc3c(n2)CC(c2ccc(C)cc2)CC3=O)cc1 (centres unmarked),0.291%
7,CCC1Oc2ccc(C)cc2N(CC(=O)N(Cc2ccc(C)o2)C2CCCC2)C1=O (centres unmarked),9.41%
8,CN(CC(=O)NC1CCCc2ccccc21)S(=O)(=O)c1cccs1 (centres unmarked),6.6%
9,c1ccc(C(c2nnnn2C2CCCC2)N2CCN(c3ccccc3)CC2)cc1 (centres unmarked),-5.63%
10,COc1ccc(S(=O)(=O)N(C(C)=O)c2ccc3oc(=O)sc3c2)cc1,2.66%
11,O=C(NCC1CCCO1)c1c(O)c2cccc3c2n(c1=O)CCC3 (centres unmarked),7.11%
12,C[C@H](N)c1nnc(SCC(=O)c2ccc(Cl)cc2)o1,-3.17%
13,Cc1cc(=O)[nH]c(SCc2ccc(Cl)cc2)n1,11.3%
14,CN(C)NC(=O)c1ccsc1NC(=O)c1ccc(S(=O)(=O)N2CCCC2)cc1,8.64%
15,COCCCNC(=O)CNC(=S)N(Cc1ccccc1F)C1CCCCC1,-6.9%
16,Cc1sc2nc(SC3CCOC3=O)n(Cc3ccccc3)c(=O)c2c1C (centres unmarked),-5.42%
17,Cc1onc(-c2ccccc2Cl)c1C(=O)Nc1c(C)n(C)n(-c2ccccc2)c1=O,6.24%
18,Cc1ccc(C)c(NC(=O)CCNS(=O)(=O)c2ccc3[nH]c(=O)oc3c2)c1,10.6%
19,O=C(c1ccc(C(F)(F)F)cc1)N1CCC(=O)N(C(COCc2ccccc2)Cc2ccccc2)CC1 (centres unmarked),-0.658%
20,Cc1cccc(C(=O)Nc2ccc(O)cc2C(=O)O)c1,-0.283%
